# Laboratory results reported in PubChem BioAssay AID463173 (ICCB-Longwood Screening Facility, Harvard Medical School, 2010).
# Hit rate of the full screen: of about 52,000 compounds, about 4,300 (8.3%) were called active. Rule as the data show it: active = survival mostly below about 52% (no sharp cut-off); inactive = mostly above about 56%. The list shows a part of the results.
# Tested on: DeltatarO mutant
# Experiment: S. aureus survival, RN4220 and DeltatarO strains – OD600, teichoic acid synthesis inhibitors, primary screen (AID 463173)
# Settings: S. aureus RN4220 wild type/DeltatarO growth, OD600, 18 h, hits give low values, screened at 18.75 µg/mL (by protocol)
row,Structure (SMILES),survival
1,CNC(=O)c1c(NC(=O)Cc2coc3ccc(OC)cc23)sc2c1CCCC2,inactive: 65%
2,Cc1ccc(C)c(NC(=O)CSc2nc(=O)n(Cc3ccncc3)c3c2CCC3)c1,inactive: 73%
3,CC(=O)N1c2ccc(S(=O)(=O)NCCC(=O)N(C)Cc3ccccc3)cc2CC1C (stereo not given),inactive: 83%
4,Cc1cc2n(n1)CCC(=O)N2Cc1ccc(C(=O)Nc2cccc(C(F)(F)F)c2)cc1,inactive: 101%
5,CCCn1nnnc1SCC(=O)N1CCCC1,inactive: 94%
6,COc1ccc(-c2noc(CSc3nc4ccccc4[nH]3)n2)cc1,inactive: 51%
7,Cc1ccc(Nc2c(-c3ccc(C)cc3)nc3c(C)cccn23)cc1,active: 9%
8,CC(C)c1ccc(Nc2c(-c3ccc(N(C)C)cc3)nc3cnccn23)cc1,active: 43%
9,O=C(NCCc1ccc(Cl)cc1)C(=O)NCC(c1cccs1)S(=O)(=O)c1ccccc1 (stereo not given),inactive: 77%
10,O=C(CSc1nnc(-c2ccccc2O)o1)Oc1ccc(OCc2ccccc2)cc1,inactive: 86%
11,CCCNC(=O)C(Cc1ccccc1)NS(=O)(=O)c1ccc2c(c1)c(=O)n(C)c(=O)n2C (stereo not given),inactive: 94%
12,CCOc1ccc(C(=O)Nc2ccc3c(c2)OCCO3)cc1Br,active: 37%
13,Cc1ccc(-c2csc3ncnc(Nc4ccc(C(=O)O)cc4)c23)cc1,inactive: 118%
14,COc1cc(NS(=O)(=O)c2ccc(-c3cc(C)no3)cc2)cc(OC)c1,inactive: 99%
15,CCN(CC)S(=O)(=O)c1cccc(C(=O)NCc2ccccc2)c1,inactive: 49%
16,Nc1c(-c2nc(-c3ccc4c(c3)OCO4)cs2)c2ccccn2c1C(=O)c1ccc(Cl)cc1,inactive: 105%
17,O=C(O)c1ccc(NC(=O)c2ccc(Br)c(S(=O)(=O)N3CCCC3)c2)cc1,inactive: 55%
18,CCOc1ccc(NC(=O)Cc2c[nH]c3ccccc23)cc1,inactive: 80%
19,Cc1ccc(SCc2nc(-c3ccc(C(=O)NCC(C)c4ccccc4)cc3)oc2C)cc1 (stereo not given),inactive: 86%
20,CCCC12CN3CC(C)(CN(C1)C3c1ccc(OCc3ccccc3)cc1)C2=O (stereo not given),inactive: 80%
21,Cc1cccc(CNC(=O)CN2C(=O)CCn3nc(-c4cn(C)c5ccccc45)cc32)c1,inactive: 119%
22,COc1ccc2c(c1)CCc1c(C(=O)Nc3ccc(OC)cc3OC)noc1-2,inactive: 180%
23,COc1ccccc1NC(=O)c1sc2nc3n(c(=O)c2c1C)N=C(c1cccc(Br)c1)CS3,inactive: 80%
24,Cn1c(C(=O)OCC(=O)NCc2cccs2)cc2sccc21,inactive: 102%
25,COc1ccc(Cn2c(C(=O)O)c(CNC3CCCCC3)c3ccc(C)cc32)cc1,inactive: 84%
